The full ranking holds about 33,000 sequences; the median of “E-score (-0.5 to 0.5)” is about -0.041, and the highest 2% start at about 0.37. This is one part of the list.
biological target: T1, Ecm22 (UniProt Q05958); experiment: PBM E-score (8-mer binding enrichment) (E-score (-0.5 to 0.5)); higher = stronger / more preferred TF binding; most listed sequences are background and not binding sites; conditions: protein concentration: 200 nM; construct: GST-full length
T1 sequence: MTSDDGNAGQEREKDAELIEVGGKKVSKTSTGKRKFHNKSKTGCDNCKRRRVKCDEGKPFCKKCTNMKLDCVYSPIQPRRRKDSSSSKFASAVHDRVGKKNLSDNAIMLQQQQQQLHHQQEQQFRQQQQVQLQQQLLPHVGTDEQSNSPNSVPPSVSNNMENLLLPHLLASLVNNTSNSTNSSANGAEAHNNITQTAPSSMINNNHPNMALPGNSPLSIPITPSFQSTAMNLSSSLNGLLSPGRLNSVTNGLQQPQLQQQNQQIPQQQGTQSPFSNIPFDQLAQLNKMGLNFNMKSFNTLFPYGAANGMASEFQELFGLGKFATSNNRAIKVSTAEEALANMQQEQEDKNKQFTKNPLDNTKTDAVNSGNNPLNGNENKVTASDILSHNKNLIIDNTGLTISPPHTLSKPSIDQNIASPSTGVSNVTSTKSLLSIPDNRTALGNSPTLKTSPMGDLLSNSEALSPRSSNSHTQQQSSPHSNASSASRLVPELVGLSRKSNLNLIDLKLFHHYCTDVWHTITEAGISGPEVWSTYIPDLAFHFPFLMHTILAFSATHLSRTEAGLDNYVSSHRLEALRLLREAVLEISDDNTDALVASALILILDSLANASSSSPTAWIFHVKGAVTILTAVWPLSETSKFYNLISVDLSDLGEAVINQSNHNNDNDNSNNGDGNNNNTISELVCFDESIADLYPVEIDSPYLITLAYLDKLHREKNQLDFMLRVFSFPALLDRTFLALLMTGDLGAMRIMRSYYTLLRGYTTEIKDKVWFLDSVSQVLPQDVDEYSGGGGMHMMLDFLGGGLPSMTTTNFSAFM
In short: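 Full-length yeast transcription factors or their DNA-binding domains, GST-tagged and expressed with PURExpress, were applied at about 100-200 nM to universal all-10-mer Agilent arrays. These arrays had been made double-stranded by primer extension on fresh or once-stripped slides. Detection used fluorescent anti-GST, normalisation used masliner, and E-scores for ungapped eight-base words pooled with reverse complements came from the Universal PBM Analysis Suite.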

In order of falling “PBM E-score” value:
1. AAACGAAA  0.449
2. CGTACCAA  0.444
3. CATACGGG  0.36
4. ACACTCGT  0.337
5. TACGTACA  0.328
6. CGTTTGAG  0.32
7. AACCGAGA  0.312
8. ACCGTCGC  0.278
9. ACCTTACG  0.272
10. ACGCATAC  0.227
11. AGGTACGC  0.217
12. AACGCGTT  0.212
13. AGCCGTCG  0.199
14. CGCGATTC  0.197
15. TCCGACGA  0.196
16. TACTACTA  0.18
17. TCGACAAA  0.178
18. AACGTCGG  0.17
19. GTTCCCCA  0.163
20. AAATTCAG  0.158
21. ATCCGAAC  0.144
22. ACGTATTC  0.144
23. AAAATTCG  0.141
24. GTACAAGA  0.12
25. AACGCGTC  0.115
26. CGGCGCCA  0.105
27. AAGCTGTA  0.104
28. CAGTTCCC  0.102
29. GATATACC  0.101
30. ACAACCAT  0.0954
31. AGGAAAAC  0.0952
32. ATAATCGA  0.0844
33. CGAATCAG  0.0842
34. GCGAAATA  0.0791
35. AGCCGAAT  0.0783
36. AGAGCCGA  0.0772
37. CTGCGTAA  0.0728
38. TGGTATAA  0.0724
39. CATATCAA  0.0699
40. CGCGGTGA  0.0662
41. ACGGCTGC  0.0588
42. GATGTGAA  0.0574
43. ATAACGAT  0.0556
44. AGTCCGAG  0.0545
45. CAGGTATA  0.0502
46. ACATTAAT  0.0488
47. ACTGCGCG  0.0421
48. CATTGCAC  0.04
49. GTCGGAGA  0.0362
50. AACATTAA  0.0332
51. TCGCAAGA  0.0321
52. GACTATTA  0.0301
53. CTCATCTA  0.0284
54. TACCGGGA  0.0279
55. CCACACGA  0.0278
56. CGGAGACA  0.0239
57. AAACAGCG  0.0227
58. AGTACAGA  0.0225
59. ACGCCCCG  0.0212
60. CCGTGCGC  0.0144
61. AATCGCGC  0.00974
62. ACCACGAA  0.0092
63. AGCTGTTA  0.00656
64. AACGCTGG  0.00556
65. ACCCTTAT  0.00524
66. GAACCACC  0.00425
67. CATAACGC  0.00293
68. CCTTATCG  -0.0002
69. CCATACCC  -0.00508
70. AGAGTGGG  -0.0087
71. ATAGCTTA  -0.0124
72. CAAGTATA  -0.0156
73. AGAGAGAG  -0.0157
74. GATTGTCA  -0.0204
75. ACTTGCGG  -0.0228
76. CAAATAGA  -0.0229
77. CACCCAAA  -0.0261
78. ATGGCTAG  -0.0274
79. GCAGCCCC  -0.0279
80. AAATACTG  -0.0315
81. CAATTCCC  -0.0317
82. GATAGTGC  -0.0363
83. GGCCCCAA  -0.0367
84. ACTTCCGC  -0.0376
85. GATCCAAA  -0.0382
86. GGCTATTA  -0.0382
87. GGCACCGA  -0.0384
88. AGATATCA  -0.0421
89. GAAGCAAC  -0.0479
90. TTTAAAAA  -0.0493
91. AGAACCCT  -0.0494
92. GGATATTA  -0.0495
93. AGCTCACC  -0.0549
94. CATGATGC  -0.059
95. CATAGCGC  -0.0593
96. AGATCACC  -0.0611
97. ATTTTCAG  -0.0614
98. CTGGGAGC  -0.064
99. CTATTGCA  -0.0672
100. ACCAATAA  -0.0726
101. GGTAAGAA  -0.0741
102. ATAACCCA  -0.0752
103. AGTAATGC  -0.0773
104. ATCCAGAG  -0.078
105. CACGGAGG  -0.084
106. CAGAGCCG  -0.0855
107. AGATGCAT  -0.0899
108. AACCTAGC  -0.09
109. ACCAGCTG  -0.0907
110. GCTTCGCC  -0.0915
111. ACGTGATG  -0.0931
112. CTTCAATC  -0.0969
113. AGTTTCAC  -0.0972
114. CAGTTGGG  -0.0976
115. CTGTGGGC  -0.108
116. GTGGACGA  -0.109
117. TAAGCTCA  -0.11
118. ATGGATAA  -0.111
119. CCTGACAC  -0.117
120. AGCACTGG  -0.121
121. AAAACATC  -0.121
122. CGTGTGCC  -0.122
123. AAAATGAC  -0.123
124. AGGGAATC  -0.126
125. AAGATAGA  -0.129
126. ACCGCATC  -0.13
127. TCCAGGAA  -0.135
128. CGGAGGGC  -0.136
129. CCATCGAA  -0.136
130. GAACTTCC  -0.138
131. ATGGCAGC  -0.141
132. CACCAGTG  -0.145
133. CTAGTACA  -0.148
134. ATTGAGCA  -0.152
135. CTTGACGC  -0.152
136. CTTTTGCA  -0.153
137. TCCCCTAA  -0.157
138. ACCCTCGA  -0.16
139. ACCTGTGG  -0.164
140. ACTGCTGC  -0.164
141. AAACTTCC  -0.165
142. CAACTCAG  -0.17
143. AAGTCAGG  -0.173
144. ATGGCGCG  -0.174
145. ATCCTCTA  -0.175
146. GTGCAAAA  -0.177
147. CATGTAGG  -0.178
148. AGCTTTCC  -0.18
149. CGCTGGAC  -0.18
150. CCACTGAG  -0.199
151. CTCCTAGA  -0.21
152. CTCAGGAG  -0.21
153. AGGAGGGC  -0.212
154. AGTCAGCG  -0.216
155. AGGTGAGA  -0.218
156. CGCAGTCA  -0.22
157. CTCTGTGA  -0.221
158. CTCACTGC  -0.222
159. CCATTCCA  -0.228
160. TGCGTCAA  -0.231
161. AGGGAAGA  -0.234
162. ACATGACT  -0.248
163. AGGAGACC  -0.248
164. CAACAGAG  -0.255
165. TAGGAACA  -0.258
166. CCGTTGGA  -0.28
167. CCATAGGA  -0.28
168. CGCTAGGC  -0.311
169. AAGCTCAG  -0.321
170. CAGACTAG  -0.325
171. CCCCCGGA  -0.346
172. GCTAGCCC  -0.379
